# The supplement of paper PMC4166925
# ± gives the standard deviation of the averaged measurements. Whole data set: some 33,000 sequences, median “E-score (dimensionless, -0.5 to 0.5)” near -0.049, cut for the highest 2% near 0.37. The list shows a part of the results.
# System: T1, PmTbr T-box DNA-binding domain (GST fusion)
# T1 sequence: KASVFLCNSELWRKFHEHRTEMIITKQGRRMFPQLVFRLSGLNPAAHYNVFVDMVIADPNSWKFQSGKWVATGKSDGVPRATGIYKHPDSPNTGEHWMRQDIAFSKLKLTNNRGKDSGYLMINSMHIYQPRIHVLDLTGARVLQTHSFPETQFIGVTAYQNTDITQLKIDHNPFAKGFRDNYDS
# Experiment: PBM E-score of 8-mer (E-score (dimensionless, -0.5 to 0.5)); Tbr is Tbrain of the sea star Patiria miniata (Pm) or the sea urchin Strongylocentrotus purpuratus (Sp); higher = stronger binding preference; most listed sequences are background and not binding sites
# Conditions: the construct has about 5 more residues each side
# Procedure, shortened: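 Universal Agilent oligonucleotide arrays, made double-stranded by primer extension, were incubated with 200 nM GST-fused Tbr T-box DNA-binding domain in PBS (pH 7.5). The protein was expressed in BL21 E. coli at 20 °C and purified by glutathione affinity chromatography. After scanning and quantification, the Universal PBM Analysis Suite assigned an enrichment E-score to each ungapped 8-mer, averaged over duplicate arrays.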
row,Sequence,PBM E-score of 8-mer
1,GGACAACC,-0.163 ± 0.0029
2,CGAGGCCC,-0.297 ± 0.064
3,CCCTGAGA,-0.117 ± 0.086
4,ATCCATGC,-0.0986 ± 0.0046
5,CCAACGTA,-0.125 ± 0.084
6,AAGATCCG,-0.0663 ± 0.054
7,GGTTTAGA,-0.165 ± 0.012
8,ACTGTGCC,-0.0429 ± 0.0065
9,CTAACGAC,0.0678 ± 0.02
10,ACAGAGAC,-0.0571 ± 0.00095
11,CGCTAAGC,0.085 ± 0.066
12,AGGACTGA,-0.103 ± 0.029
13,AGTCATTA,0.027 ± 0.049
14,ACACTCGC,0.352 ± 0.011
15,GTAGGTCA,-0.0527 ± 0.062
16,CGGTGGTA,-0.00583 ± 0.042
17,GCCAATCA,-0.0356 ± 0.057
18,GAGGCAGC,-0.161 ± 0.082
19,GAGTTGGA,-0.0868 ± 0.0038
20,GACATCCA,0.00494 ± 0.044
21,CATATCGC,0.196 ± 0.059
22,GGGGGAAC,-0.0958 ± 0.093
23,ACCTGCAC,0.163 ± 0.056
24,GAAATTGC,-0.0456 ± 0.013
25,GGTTACAC,0.239 ± 0.044

row,Sequence,PBM E-score of 8-mer
1,AAACCACG,-0.0687 ± 0.029
2,CCCGAGAC,-0.136 ± 0.039
3,ATTTGACG,0.171 ± 0.12
4,CCTCCCTC,-0.195 ± 0.058
5,GCAACTCC,0.227 ± 0.045
6,GAACCCAA,-0.0433 ± 0.029
7,ATCAGATG,0.0342 ± 0.053
8,GGATCTCA,-0.101 ± 0.01
9,AATGCGGC,-0.00328 ± 0.02
10,CGTGATAC,0.177 ± 0.087
11,GTATGGGA,-0.306 ± 0.0041
12,GCGCGAAC,0.411 ± 0.017
13,ATTGTGCC,0.0295 ± 0.034
14,CAAAGTCG,-0.0635 ± 0.038
15,AGTGGTAG,0.111 ± 0.066
16,ATGGTAGG,0.0178 ± 0.038
17,ACCGAAAC,-0.188 ± 0.013
18,TCCAACGA,-0.0827 ± 0.02
19,CAGTACGA,-0.164 ± 0.0049
20,CTAGATTA,-0.0999 ± 0.051
21,CTTAGGGC,-0.123 ± 0.038
22,CTACGCCC,0.0283 ± 0.045
23,CTATAAAC,-0.0338 ± 0.068
24,AACGGGAT,-0.136 ± 0.014
25,TAGTTCGA,0.16 ± 0.056

row,Sequence,PBM E-score of 8-mer
1,CCACCAGG,-0.195 ± 0.069
2,AGTAGGGC,-0.278 ± 0.072
3,ACCCTTTG,-0.0701 ± 0.029
4,CGTTTTAC,-0.0254 ± 0.085
5,GTGAGTAA,0.242 ± 0.032
6,ACGTCGCC,-0.0221 ± 0.011
7,GTCCTAAA,-0.16 ± 0.06
8,ACCGGGGG,-0.227 ± 0.097
9,ATTAAATC,-0.127 ± 0.0058
10,ATTGATTA,-0.0965 ± 0.0069
11,GTATAATA,-0.244 ± 0.01
12,GTGTACAC,-0.0175 ± 0.025
13,TACAGGCA,0.0516 ± 0.028
14,CGTGTTAC,0.349 ± 0.015
15,AGGGCATA,-0.149 ± 0.025
16,AGATCATG,-0.15 ± 0.0075
17,ACGCCGGG,-0.0787 ± 0.081
18,ACCCAGCT,-0.119 ± 0.046
19,GACGTAGA,-0.0828 ± 0.053
20,CAATGTAG,-0.0135 ± 0.03
21,AGGTCACC,0.111 ± 0.041
22,AGCCAGAG,-0.0902 ± 0.046
23,AATAATAC,-0.0559 ± 0.084
24,CCTGTCTC,0.0494 ± 0.052
25,AAGTGCAC,-0.0994 ± 0.032

row,Sequence,PBM E-score of 8-mer
1,ACACGCTA,0.128 ± 0.027
2,GCGACTTA,0.158 ± 0.044
3,CTCCGTAC,-0.168 ± 0.014
4,CGATAAAG,0.175 ± 0.079
5,AGTCATGA,-0.0772 ± 0.02
6,TGCCTTAA,-0.0679 ± 0.022
7,CTACTACC,-0.143 ± 0.066
8,ACACGTAA,0.175 ± 0.0069
9,GGTTAAAA,-0.0875 ± 0.036
10,AACCCGCC,-0.08 ± 0.0019
11,GTGATGTA,0.115 ± 0.033
12,GGGAGACC,-0.188 ± 0.068
13,GTACAGAA,-0.119 ± 0.061
14,CTCACGCC,0.3929 ± 0.00041
15,CACACTGA,0.2581 ± 0.00048
16,GTCGCCCA,0.192 ± 0.015
17,ATATAGGG,-0.119 ± 0.031
18,CTTGTCAC,0.405 ± 0.015
19,CGTGGGTA,-0.0403 ± 0.024
20,AGATGTGG,0.0433 ± 0.038
21,AGCATGAC,-0.0334 ± 0.014
22,CTGAGTCC,-0.154 ± 0.032
23,GCAAGTAC,0.0735 ± 0.073
24,AATCGATC,-0.0502 ± 0.086
25,GAAAGGGC,-0.0791 ± 0.011

row,Sequence,PBM E-score of 8-mer
1,AAGACAAG,-0.0534 ± 0.077
2,TTCTCCAA,-0.14 ± 0.013
3,GCAAGGCC,-0.145 ± 0.002
4,CGCTAACG,0.3714 ± 0.0037
5,CCTAAACA,-0.0519 ± 0.0048
6,ATATCCAA,-0.0364 ± 0.021
7,AATTGTTC,-0.0266 ± 0.035
8,TAGTCTAA,-0.181 ± 0.032
9,CCGAGCGC,0.0142 ± 0.014
10,GAGGTAGC,-0.0935 ± 0.045
11,CGGTCACA,0.218 ± 0.068
12,ACAAAACG,0.0347 ± 0.054
13,AATAGTGT,0.213 ± 0.046
14,ACCGGTCC,-0.276 ± 0.048
15,GACTAACA,0.215 ± 0.034
16,CCTCTGTA,0.0451 ± 0.023
17,AGCAGACC,-0.0932 ± 0.025
18,AAGTCGTG,0.173 ± 0.018
19,GGAGGGGA,-0.036 ± 0.063
20,GCCAACAA,0.153 ± 0.026
21,CCAGCAAG,-0.207 ± 0.0072
22,TGCGGTAA,-0.0928 ± 0.031
23,CCTATGCC,-0.146 ± 0.0042
24,CACGGCCA,0.0611 ± 0.028
25,CCGACGAG,0.0868 ± 0.013

row,Sequence,PBM E-score of 8-mer
1,CGGGGCAG,-0.0761 ± 0.031
2,CTTGAATC,-0.165 ± 0.011
3,CTGGAGGA,-0.00257 ± 0.063
4,GAGAACTA,0.184 ± 0.025
5,CACCCAAG,0.263 ± 0.023
6,TCATAGCA,0.0932 ± 0.011
7,CAAGATCC,-0.0705 ± 0.028
8,TACCCCCA,-0.3648 ± 0.0034
9,AGCCTTAC,-0.307 ± 0.0095
10,CGTGCTGA,0.209 ± 0.024
11,GCCGGGAA,0.0291 ± 0.082
12,AAACGACG,0.00901 ± 0.025
13,AACCTAGG,-0.0117 ± 0.074
14,CCGAGGGC,-0.0627 ± 0.08
15,GATCCTGA,-0.144 ± 0.049
16,CAGCATCC,-0.171 ± 0.0059
17,ACTCCTGC,-0.195 ± 0.015
18,AAGCAGAG,-0.286 ± 0.013
19,ACGCGACA,0.334 ± 0.028
20,GCACTTTA,0.291 ± 0.06
21,ATCTCGGG,0.00677 ± 0.023
22,GCAGACCA,-0.28 ± 0.12
23,CATCTTAG,0.0719 ± 0.0036
24,GTTTACCA,0.00923 ± 0.035
25,ATCGATAG,0.0697 ± 0.011

row,Sequence,PBM E-score of 8-mer
1,ATGCCAAT,0.075 ± 0.04
2,AGCGTCCC,-0.157 ± 0.07
3,GAATAAAC,-0.19 ± 0.041
4,ATCACCTC,0.4197 ± 0.00045
5,GTAGGGGA,-0.198 ± 0.086
6,ACGCGACT,0.0612 ± 0.064
7,GCGTGGTA,-0.0938 ± 0.022
8,ACGAGGAA,-0.2 ± 0.035
9,CCGTCGCA,0.168 ± 0.048
10,CAATACGG,-0.256 ± 0.0027
11,AGCAAGTG,0.266 ± 0.023
12,CATTCGGG,-0.226 ± 0.025
13,ATTGGAGG,0.0195 ± 0.049
14,ACTAGCTC,-0.184 ± 0.036
15,CCGTCTCA,0.057 ± 0.034
16,GCGCGTCA,0.287 ± 0.029
17,AATTTATA,-0.123 ± 0.1
18,CATGAAGG,-0.00622 ± 0.018
19,GCATCCAA,-0.145 ± 0.043
20,ATGCGACC,0.0103 ± 0.013
21,CGACTACC,-0.059 ± 0.041
22,CTTGTTAC,0.152 ± 0.044
